Data on 29 molecules can be found in PubChem BioAssay AID1240 (Sanford-Burnham Center for Chemical Genomics, 2008).

SMILES strings stand for the structures. Out of some 50,000 compounds screened, about 800 (1.6%) showed an effect of 50% or more. The list shows a part of the results.

This assay concerns the target Bcl-2-like protein 10 (Homo sapiens) (UniProt Q9HD36). Put plainly: Phenotype converters, Bcl-B/TR3 peptide binding displacement, primary biochemical FP (AID 1240).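 Also: 0% = Bcl-B with tracer peptide and DMSO and 100% = tracer peptide lacking Bcl-B.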 To be noted: GST-Bcl-B / FITC-TR3 peptide fluorescence polarization; stronger effect = higher value; compound at 3.75 mg/L. For orientation: In fluorescence polarisation assays a small probe gives low polarisation when free and higher when bound to something large.
Chain of UniProt Q9HD36 (Q9HD36 whole entry, looked up): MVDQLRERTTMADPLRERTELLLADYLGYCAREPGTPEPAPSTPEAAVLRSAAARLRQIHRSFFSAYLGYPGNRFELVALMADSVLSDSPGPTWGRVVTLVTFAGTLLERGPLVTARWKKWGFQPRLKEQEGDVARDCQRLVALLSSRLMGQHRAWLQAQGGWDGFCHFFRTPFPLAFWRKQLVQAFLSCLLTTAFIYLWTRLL
With `O=c1oc(-c2ccccc2)nc2sc3c(c12)CCCCC3`, the displacement was 5.1%. To `COc1ccccc1C1C(C(=O)/C=C/c2ccccc2)=C(O)C(=O)N1CCCCCC(=O)O` (centres undefined) belongs 4%; to `Cc1nnc(NC(=O)c2cccc(C(=O)O)c2)s1`, -3.4%; to `CC(C)(C)C1(C)OC(O)(C(Cl)(Cl)Cl)CC1=O` (centres undefined), -5.1%. Next, `CC(=C/c1ccc(C(C)C)cc1)/C=N/NC(=O)c1cccc(N2CCCC2=O)c1`: -4.2%; `O=C(O)/C=C/C(=O)Nc1ccc(NC(=O)c2ccccc2)c(Cl)c1`: -2%. Next, `N#Cc1ccccc1Sc1ccccc1C(=O)N1CCOCC1`: -6%. For the molecule `COc1ccc(NC(=O)C(=O)NCc2ccccc2)cc1Cl`, the displacement worked out at 12%. Consider `Cc1ccc(NC(=O)OCC(F)(F)C(F)F)cc1Cl`, for which the displacement was determined as 6.7%. As for `CC(C)C(=O)NS(=O)(=O)c1ccc(NC(=O)C(F)(F)F)cc1`, the displacement came to 11%. As to `O=[N+]([O-])c1ccc(C2SCCN2S(=O)(=O)c2ccc3cccc4c3c2CC4)cc1` (centres undefined), the displacement was -1.4%. To `O=C1c2cc(S(=O)(=O)Nc3ccc(F)cc3)ccc2-c2ccc(S(=O)(=O)Nc3ccc(F)cc3)cc21` belongs 8.5%; to `CC(C)N(C(=O)Cn1c(CCCO)nc2ccccc21)c1ccccc1`, -8.4%. Next, `COc1ccc(-c2nnc(NC(=O)c3ccc(Cl)cc3Cl)s2)cc1`: 3.2%; `CCOC(=O)C1(C)C=C(Nc2ccc(C)cc2)C(=O)N1c1ccc(C)cc1` (centres undefined): -1.6%. To `Cc1cc(C)cc(NC(=O)CN(c2ccccc2)S(C)(=O)=O)c1` belongs -12%. Take `CC1CCOP(=O)(C(Nc2cc(Cl)cc(Cl)c2)c2ccc(Br)cc2)O1` (centres undefined): the displacement is -4%. For the molecule `CCOC(=O)c1c(NC(C)=O)sc2c1CCC(C)C2` (centres undefined), the displacement is -9.1%.

As to `CC(C)c1ccc(OCC(=O)Nc2ncc(S(=O)(=O)c3ccc([N+](=O)[O-])cc3)s2)cc1`, the displacement was found to be 4.6%. Next, `O=C1NC(=S)S/C1=C\c1ccc(N2CCCCC2)c([N+](=O)[O-])c1`: 34.6%.

As for `Cc1ccc2nsnc2c1NC(=O)COc1ccccc1[N+](=O)[O-]`, the displacement is -0.3%. In the case of `CCOc1ccccc1NC(=O)C(=O)NCCC1=CCCCC1`, the displacement is -10.3%. For the molecule `CC(=O)c1cccc(NC(=S)Nc2ccccc2)c1`, the displacement is -10.1%. In the case of `Cc1ccc(N2C(=O)CC(Sc3ccccc3C(=O)O)C2=O)c([N+](=O)[O-])c1` (centres undefined), the displacement was -15%. Next, `CCOc1ccccc1OCCN1CCOCC1`: -4.9%. Next, `COc1ccc(C(=O)Nc2ccc(NC(=O)c3ccco3)c(OC)c2)cc1Cl`: 20.4%; `CC1=C(C(=O)OCCOc2ccccc2)C(c2ccccc2[N+](=O)[O-])C2=C(CCCC2=O)N1` (centres undefined): -3.8%; `Cc1ccc(N(CC(=O)NCc2ccncc2)S(=O)(=O)c2ccc(F)cc2)cc1`: 0.9%. Next, `Cc1onc(-c2ccccc2)c1C(=O)N1CCN(c2ccc(Cl)cc2)CC1`: -5.1%.
